In the RNAGym collection of RNA variant scans (doi:10.1073/pnas.2313332121):
This sample is rich in variants without activity.

B1: TPR 5TU (parent)
chain: GGAUCUUCUCGAUCUAACAAAAAAGACAAAUCUGCCACAAAGCUUGAGAGCAUCUUCGGAUGCAGAGGCGGCAGCCUUCGGUGGCGCGAUAGCGCCAACGUUCUCAACUAUGACACGCAAAACGCGUGCUCCGUUGAAUGGAGUUUAUCAUG

Variants of: B1
Assay: polymerase ribozyme fitness, log enrichment relative to wild type (log ratio); higher = more active; in vitro selection for triplet polymerase activity
Procedure, shortened: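 Mutant libraries of both subunits of a heterodimeric triplet polymerase ribozyme were PCR-built, transcribed, and selected once in triplicate, with frozen incubation at −7 °C and capture of gel-excised extended constructs on streptavidin beads before RT-PCR. Illumina sequencing of input and output libraries was filtered to genotypes with ≥10 input reads and ≥1 read per output. Fitness is the logarithm of genotype enrichment over wild-type enrichment, using inverse-variance-weighted replicate averages. The logarithm is base 2.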

Polymerase ribozyme fitness (log ratio), ≤ -4.2:
GGACCUGCUCGAUCUAACUGAAAAGACAUAUCUGCCACAAAGCUUGAGAGCAUCUUCGGAUGCAGAGGCCGCAGCCUUCGGUGGCGCGAUAGCGCCAACGUUCUCAACUCUGACACGCAAAACGCGUGCUCCGUUGAAUGGAGUUUAUCAUG [U4C U7G A19U A20G A29U G70C A110C]
GGACCUUCACGAUCUAACAAAAAAGACAAAUCUGCCACAAAGCUUGAGAGCAUCUUCGGAUGCAGCGGCGGCAGCCUUCGGUGGCGCGAUAGCGCCAACGUUCUCAACUAUGACACGCAAAACGCGUGCUCCGUUGAAUGGAGUUUAUCAUG [U4C U9A A66C]
GGACCUUCUCGAUCGAACAGAAAAGACAAAUCUGCCACAAAGCUUGCGAGCUUCUUCGGAUGCAGAGGCGGCAGCCUUCGGUGGAGCUAUAGAGCCCACGUUCUCAACUAUGACACGCUAAACGCGUGCUCCGUUGAAUGGAGUUUAUCUUG [U4C U15G A20G A47C A52U C85A G88U C93A A97C A119U A150U]
GGACCUUCUCGAUCUAACAAAAAAGACAAACCUGCCACAAAGCUUGAGAGCCUCUUCGGAUGCAGAGGCUGCAGCCUUCGGUGGCGCGAUAGCGACAACGUUCUCAACUAUGACACGCAAAACGCGUGCUCCGUUGAAUGGAGUUUAUUAUG [U4C U31C A52C G70U C95A C149U]
GGACCUUCUCGAUCUAACAAAAAAGACAAAUCUGCCACAAAGCUUGAGAGCACCUUCGGAUGCAGAGGCGGAAGCCUUCGGUGGCGCGAUAGCGCCAACGUUCUCAACUAUGACACGCAAAACGCGUGCUCCGUUGAACGGAGUUUAUCGUG [U4C U53C C72A U139C A150G]
GGAGCUUCUCGCUCUAACAAAAGAGACAAAUCGGCCACAAACCUUGAGAGCAUCUUCGGAUGCAGAGCCGUCAGCCUUCGGUGUCGCGAUAGCGCCAACGUUCUCAAUUAUGACACGCAAAACGCGUGCUCCGUUGAAUGGAGUUUAUCAUG [U4G A12C A23G U33G G42C G68C G71U G84U C108U]
GGAGCUUCUCGCUCUAACAAAAAAGUCAAAUCUGCCACAAAGAUGGAAAGCAUCUUCGGAUGCAGAGGCGGCAGCCUUCGAUGGCGCGAUAGCGCCAACGUUGUCAACUAUGACACGCAAAACGCGUGCUCCGUUGAAUGGAAUUUAUCAUG [U4G A12C A26U C43A U45G G48A G81A C103G G143A]
GGAGCUUCUCGUUCUAACAAAAAAGACAAAUCUGCCACAAAGCUUGAGGGCAUCUUCGGAUGCAGAGGCGGCAGCCUUCGGUGGCGGAAUAGCGCCAACGUUCUCAACUAUGACACGCAAAACGAGUGCUCCGUUGAAUGGAGUUUAUCAUG [U4G A12U A49G C87G G88A C125A]
GGAGCUUCUCGUUCUAACAAAAAAGACAAAUCUGCCACAAAGCUUGAGAGCAUCUUCGGAUGCAGAGGCGGCGGCCUUCGAUGGCGCGAUAUCGCCAAAGUUCUCAACUAUGACACGCAAAACGAGUGCUCCGCUGAAUGGAGUUUAUCAUG [U4G A12U A73G G81A G92U C99A C125A U134C]
GGAGCUUCUCGAUCUUACAAAAAAGACAAAUCUGCCAUAAAGCUUGAGAGCAUUUUCGGAUGCAGAGGCGGCAGCCUUCGGUAGCGCGAUAGCGCCAACGUUCUCAACUAUGACACGCAAAACGCGUGCUCCGUUGAAUGCAGUGUAUCAUG [U4G A16U C38U C54U G83A G141C U145G]
GGAGCUUCUCGAUCUAACAUAAAAGACAAAUCUGCCACAAAGCUUGAGAGUAUCUUCGGAUGCAGAGGCGGCAGCCUUCGGUUGCGCGAUAGCGCCAACGUUCUCAACUAUGACGCGCAAAACGCGUGCUCCGUUGAAUGGAGUUUAUCAUU [U4G A20U C51U G83U A115G G152U]
GGAGCUUCUCGAUCUAACAAUAAAGGCCAAUCUGCCACAAAGCUUGAGAGCAUCUUCGGAUUCAGAGGCGGCAGCCUUCGCUGGCGCGAUAGCGGCAUCGUUCUCAACUAUGACACGCAAAACGCGUGCUCCGUUGAAUGGAGUUUAUCAUG [U4G A21U A26G A28C G62U G81C C95G A98U]
GGAGCUUCUCGAUCUAACAAACAAGUCAAAUCUGCCACAAAGCUUGAGAGCAUCUUACGAUGCAGAGGCGGCAGCAUUCGGGGGGGCGAUAGCGCCAUCGUUGUCAACUAUGACACUCAAAACGCGUGCUCCGUUGAAUGGAGUUUAUCAUG [U4G A22C A26U C57A G58C C76A U82G C85G A98U C103G G117U]
GGAGCUUCUCGAUCUAACAAACAAGACAAACCUGCCACAAAGCUUGAGAGCAUCUUCGGAUGCAGAGGCGGCAGCCUUCGGUGGCGCGAUGGCGCCAACGUUCUCAACUAUGACACGCAAAACGCGAGCUCCAUUGAAUGGAGUUUAUCAUG [U4G A22C U31C A91G U127A G133A]
GGAGCUUCUCGAUCUAACAAAAAAGACAUAUCUGCCACAAAGCUUGAGAGGAUCUUCGGAUGCAGAGGCGGCAGCCUUCGGUAGCGCGAUAGCGCCAACGUUCUCAACUAUGACACGCAAAACGCGUGCUCCGUUGAAUGGAGUUUAUCAUG [U4G A29U C51G G83A]
GGAGCUUCUCGAUCUAACAAAAAAGACAAGUCUGCCACUAAGCUUGAGUGCAUCUUCGGAUGCAGAGGCGGCAGCCUUCGGUGGAGCGAUAGCGCCAACGUUCUCAACUAUGACACGCAAAACGCGUGCUCCGUUGAAUGGAGUUUAUCAUG [U4G A30G A39U A49U C85A]
GGAGCUUCUCGAUCUAACAAAAAAGACAAAUCUGCCCCAAAGCUUGAGAACAUCUUCAGAUGCAGAGGCGGCAGCCUUCGGUGGCGCGAUUGCGCAAACGUUCUCAACUAUGACACGCGAAACGCGUGCUCCGUUGAAUGGAGUUUAUCAUG [U4G A37C G50A G58A A91U C96A A119G]
GGAGCUUCUCGAUCUAACAAAAAAGACAAAUCUGCCACAAAGCUUGAGAGCAUCUUCGGCUGCAGAGGCGGCAGCAUUCGGUGGCGCGAUAUCGACAACGUUCUCAACUAUGACACGCAAAACGCGUGCUCCGUUGAAUGGAGUGUAUGAUG [U4G A60C C76A G92U C95A U145G C149G]
GGAGAUUCUCGAUCUAACAAAAAAGACAAAACUGCGACAAAGCUUGAGAGCAUCUUCGGAUGGAGAGGGGGCAGCCUUCGGUGGCGCGAUAGCGCCAACGUUCUCAACUAUGACACGCAAAACGCGUGCUCCAUUGAAUGGAGUUUAUCAUG [U4G C5A U31A C36G C63G C69G G133A]
